# Test results taken from a collection of fitness landscapes (doi:10.1016/j.celrep.2020.107928).
# Whole data set: some 81,000 sequences, median “one-hybrid fitness for binding NBS DNA” near -0.1, cut for the highest 2% near 0.36. The list shows a part of the results.
# B1: Caulobacter ParB omega fusion; a variant is named by its letters at X, in order, B8GW30 (parent)
# chain: MESVVVGEPGMSEGRRGLGRGLSALLGEVDAAPAQAPGEQLGGSREAPIEILQRNPDQPRRTFREEDLEDLSNSIREKGVLQPILVRPSPDTAGEYQIVAGERAWRAAQRAGLKTVPIMVRELDDLAVLEIGIIENVQRADLNVLEEALSYKVLMEKFERTQENIAQTIGKSXSHVANXMRLLXLPDEVQSYLVSGELTAXHARAIAAAADPVALAKQIIEGGLSVRETEALARKAPNLSAGKSKGGRPPRVKDTDTQALESDLSSVLGLDVSIDHRGSTGTLTITYATLEQLDDLCNRLTRGI
# Variants of: B1
# Assay: one-hybrid fitness for binding NBS DNA (the Noc-binding site; scaled: cognate 1, non-cognate 0); higher = stronger binding
# Conditions: with NBS DNA site
# Method in brief: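 Fitness is the rescaled log change in variant-to-wild-type read ratio, measured by Illumina sequencing of plasmids before and after bacterial one-hybrid selection. The scale puts cognate at 1 and non-cognate at 0. Selection of Caulobacter ParB libraries, four specificity codons randomised, took place in E. coli USO with a HIS3 reporter, site 19 bp from the promoter, over 48 hours at 37°C on M9-minus-histidine with 0.1 mM IPTG and 5 mM 3-AT.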
row,Variant,one-hybrid fitness for binding NBS DNA
1,NVRN,≤ 0.2
2,GSNV,≤ 0.2
3,TWQR,≤ 0.2
4,IFPR,≤ 0.2
5,HRIR,≤ 0.2
6,NSRE,≤ 0.2
7,GGTV,≤ 0.2
8,ATQC,≤ 0.2
9,GNNC,≤ 0.2
10,TMIN,≤ 0.2
11,FKSC,≤ 0.2
12,RDNC,≤ 0.2
13,GMCW,≤ 0.2
14,DLVR,≤ 0.2
15,DINR,≤ 0.2
16,MCTK,≤ 0.2
17,TRNI,≤ 0.2
18,PLAS,≤ 0.2
19,VPYG,≤ 0.2
20,RTSC,≤ 0.2
21,LVTW,≤ 0.2
22,PPTY,≤ 0.2
23,EDMG,≤ 0.2
24,PILS,≤ 0.2
25,LPQL,≤ 0.2

row,Variant,one-hybrid fitness for binding NBS DNA
1,GNAR,≤ 0.2
2,YRNI,≤ 0.2
3,QILW,≤ 0.2
4,PGFF,≤ 0.2
5,ADRP,≤ 0.2
6,MVKY,≤ 0.2
7,CAVS,≤ 0.2
8,MYLG,≤ 0.2
9,RSLL,≤ 0.2
10,IKDN,≤ 0.2
11,NVKW,≤ 0.2
12,CKCG,≤ 0.2
13,TRKE,≤ 0.2
14,AIFL,≤ 0.2
15,DMWV,≤ 0.2
16,FAAR,≤ 0.2
17,KQSN,≤ 0.2
18,YRRD,≤ 0.2
19,EIVT,≤ 0.2
20,TQTG,≤ 0.2
21,SKDV,≤ 0.2
22,HAGV,≤ 0.2
23,YNER,≤ 0.2
24,HCTL,≤ 0.2
25,PQKT,≤ 0.2

row,Variant,one-hybrid fitness for binding NBS DNA
1,THYS,≤ 0.2
2,WTHL,≤ 0.2
3,PPIA,≤ 0.2
4,PAIG,≤ 0.2
5,IPSM,≤ 0.2
6,NYAS,≤ 0.2
7,LWGM,≤ 0.2
8,RYLH,≤ 0.2
9,QTTR,0.794
10,HVTN,≤ 0.2
11,HDGT,≤ 0.2
12,RKMC,0.238
13,DLTC,≤ 0.2
14,PFLT,≤ 0.2
15,RTTS,0.484
16,QRAS,0.684
17,YPVG,≤ 0.2
18,RQKW,≤ 0.2
19,TPNG,≤ 0.2
20,PGVT,≤ 0.2
21,QCYF,≤ 0.2
22,YLPS,≤ 0.2
23,QRFW,≤ 0.2
24,QAQG,≤ 0.2
25,SSGA,≤ 0.2

row,Variant,one-hybrid fitness for binding NBS DNA
1,CVRS,≤ 0.2
2,EVAG,≤ 0.2
3,AQCT,≤ 0.2
4,DQGR,≤ 0.2
5,HDWG,≤ 0.2
6,QKWF,≤ 0.2
7,DAAM,≤ 0.2
8,YIWS,≤ 0.2
9,ANAL,≤ 0.2
10,REHE,≤ 0.2
11,TDKY,≤ 0.2
12,QCTD,≤ 0.2
13,WAGR,≤ 0.2
14,QHVI,≤ 0.2
15,ANAC,≤ 0.2
16,KLSY,≤ 0.2
17,VNAF,≤ 0.2
18,GSPT,≤ 0.2
19,LDHK,≤ 0.2
20,HYLV,≤ 0.2
21,HENL,≤ 0.2
22,GGGN,≤ 0.2
